Experimental data reported in the supplement of paper PMC4604168 (melanoma cell lines).
Some of the results follow. Repeats are few or missing, and single values can be far off.

Legend:
Assay in all cases: cell count relative to DMSO control; melanoma cells; higher = more viable cells
Conditions in all cases: library dose: low library concentration; 72 h
[1] = test system: MZ2-MEL
[2] = test system: MeWo
[3] = test system: RPMI7951
[4] = test system: RVH-421
[5] = test system: SkMel28
[6] = test system: SkMel2
[7] = test system: SkMel30
[8] = test system: SkMel5
[9] = test system: UACC257
[10] = test system: UACC62
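Note: cell number obtained by counting DAPI-stained nuclei in high-throughput microscope images with image analysis software, screen run in 1,536-well plates.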

SMILES	cell count [1] [%]	cell count [2] [%]	cell count [3] [%]	cell count [4] [%]	cell count [5] [%]	cell count [6] [%]	cell count [7] [%]	cell count [8] [%]	cell count [9] [%]	cell count [10] [%]
CCCCCCCCc1ccc(CCC(N)(CO)CO)cc1 [fingolimod] + COc1ccc2c(c1)CCC1C2CCC2(C)C(NCCCCCCN3C(=O)C=CC3=O)CCC12 [U73122] (first compound 2 µM, partner dose 0.4 µM)	98.7	93.7	70.1	66.4	94.9	93.8	83.6	85.6	102	86.5
CCCCCCCCc1ccc(CCC(N)(CO)CO)cc1 [fingolimod] + O=C(Nc1cccc(Cl)c1)Nc1ncc(CCNc2ncnc3ccsc23)s1 [SNS314] (first compound 2 µM, partner dose 0.0008 µM)	103	105	88.5	122	104	105	117	96.2	118	86.3
CCCCCCCCc1ccc(CCC(N)(CO)CO)cc1 [fingolimod] + CN(NC(=O)CC(=O)NN(C)C(=S)c1ccccc1)C(=S)c1ccccc1 [STA4783] (first compound 2 µM, partner dose 0.006 µM)	95	83.9	57.6	87.1	105	80.7	68.1	94.8	94.4	74.1
CCCCCCCCc1ccc(CCC(N)(CO)CO)cc1 [fingolimod] + C[C@@H]1CCN(C(=O)CC#N)C[C@@H]1N(C)c1ncnc2[nH]ccc12 [CP690550] (first compound 2 µM, partner dose 1 µM)	113	96.1	79.7	79.9	76.6	98.4	95.3	95.4	82.5	84.1
CCCCCCCCc1ccc(CCC(N)(CO)CO)cc1 [fingolimod] + O=S(=O)(c1ccccc1)N(CC(F)(F)F)c1ccc(C(O)(C(F)(F)F)C(F)(F)F)cc1 [T0901317] (first compound 2 µM, partner dose 1.4 µM)	94.7	96.3	91	93.3	88	87.1	113	70	84.7	62
CC(C)(C)c1cnc(CSc2cnc(NC(=O)C3CCNCC3)s2)o1 + CN(C)S(=O)(=O)c1ccc2c(c1)/C(=C/c1cc3c([nH]1)CCCC3)C(=O)N2 [SU6656] (first compound 0.01 µM, partner dose 0.4 µM)	101	94	104	61.7	95.4	95.9	115	89.7	77.7	93.3
CC(C)(C)c1cnc(CSc2cnc(NC(=O)C3CCNCC3)s2)o1 + Cn1cncc1[C@@](N)(c1ccc(Cl)cc1)c1ccc2c(c1)c(-c1cccc(Cl)c1)cc(=O)n2C [tipifarnib] (first compound 0.01 µM, partner dose 0.01 µM)	93.5	84.5	62.4	80.3	83.3	94.6	88	103	69.4	61.4
CN(NC(=O)CC(=O)NN(C)C(=S)c1ccccc1)C(=S)c1ccccc1 + COc1cc2c(Oc3ccc4[nH]c(C)cc4c3F)ncnc2cc1OCCCN1CCCC1 [cediranib] (first compound 0.006 µM, partner dose 0.4 µM)	110	98.7	123	87.4	104	104	88.9	93.4	84	88
NC(=O)c1ccc(N(C(N)=O)c2c(F)cccc2F)nc1-c1ccc(F)cc1F + CCN(CC)CCCCNc1ncc2cc(-c3cc(OC)cc(OC)c3)c(NC(=O)NC(C)(C)C)nc2n1 [PD173074] (first compound 0.4 µM, partner dose 0.1 µM)	105	95.4	95.6	113	101	110	106	110	92.8	111
CCCCCCCCc1ccc(CCC(N)(CO)CO)cc1 [fingolimod] + CCN(CC)CCCCNc1ncc2cc(-c3cc(OC)cc(OC)c3)c(NC(=O)NC(C)(C)C)nc2n1 [PD173074] (first compound 2 µM, partner dose 0.1 µM)	98.2	100	95.8	79.4	76.3	92.5	85.5	97.1	109	87.4
CC(C)(C)c1cnc(CSc2cnc(NC(=O)C3CCNCC3)s2)o1 + NC(=O)Nc1cc(-c2cccc(F)c2)sc1C(=O)N[C@H]1CCCNC1 [AZD7762] (first compound 0.01 µM, partner dose 0.02 µM)	104	97.8	105	119	104	108	111	111	131	79.1
NC(=O)c1ccc(N(C(N)=O)c2c(F)cccc2F)nc1-c1ccc(F)cc1F + O=C(CCCCCCC(=O)Nc1ccccc1)NO [vorinostat] (first compound 0.4 µM, partner dose 0.08 µM)	105	85.1	89.2	115	66	92.9	89.5	104	97	95.3
